Test results reported in patent US20260274856A1, “COVALENT CEREBLON LIGANDS” (C4 THERAPEUTICS, INC., priority 2023, published 2026).

Target: CRBN(delta 1-40)/DDB1(delta BPB) (Homo sapiens, UniProt Q96SW2)
Experiment: Covalent labeling of CRBN, intact protein mass spectrometry
Conditions: 15 μM protein stock, 6 h at room temperature; for % modified (15 μM): 15 μM compound; for % modified (150 μM): 150 μM compound

| Compound | % modified (15 μM) | % modified (150 μM) |
| --- | --- | --- |
| O=C1CCC(Oc2ccc(C3CCNCC3)c(OS(=O)(=O)F)c2)C(=O)N1 (stereo not drawn) [Compound A-42, 5-((2,6-dioxopiperidin-3-yl)oxy)-2-(piperidin-4-yl)phenyl sulfurofluoridate] | ++++ (≥20% and <40%= ++++) | ++++++ (≥60% and <80% = ++++++) |
| O=C1CCN(c2ccc(C3CCNCC3)c(S(=O)(=O)F)c2)C(=O)N1 [Compound A-45, 5-(2,4-dioxotetrahydropyrimidin-1(2H)-yl)-2-(piperidin-4-yl)benzenesulfonyl fluoride] | ++++++ (≥60% and <80% = ++++++) | +++++++ (≥80% = +++++++) |
| O=C1NC(=O)C2(Nc3ccc(OS(=O)(=O)F)cc3)CC1C2 [Compound A-46, 4-((2,4-dioxo-3-azabicyclo[3.1.1]heptan-1-yl)amino)phenyl sulfurofluoridate] | + (<5% = +) | + (<5% = +) |
| O=C1CCC(NC(=O)c2cccc(OS(=O)(=O)F)c2)C(=O)N1 (stereo not drawn) [Compound A-47, 3-((2,6-dioxopiperidin-3-yl)carbamoyl)phenyl sulfurofluoridate] | + (<5% = +) | + (<5% = +) |
| O=C1CCC(NC(=O)c2cccc(S(=O)(=O)F)c2)C(=O)N1 (stereo not drawn) [Compound A-49, 3-((2,6-dioxopiperidin-3-yl)carbamoyl)benzenesulfonyl fluoride] | + (<5% = +) | ++++ (≥20% and <40%= ++++) |
| Cn1c(=O)n(C2CCC(=O)NC2=O)c2ccc(C3CCNCC3)c(OS(=O)(=O)F)c21 (stereo not drawn) [Compound A-53, 1-(2,6-dioxopiperidin-3-yl)-3-methyl-2-oxo-5-(piperidin-4-yl)-2,3-dihydro-1H-benzo[d]imidazol-4-yl sulfurofluoridate] | + (<5% = +) | + (<5% = +) |
| CN1C(=O)CCC(Nc2ccc(C3CCNCC3)c(OS(=O)(=O)F)c2)C1=O (stereo not drawn) [Compound A-55, 5-((1-methyl-2,6-dioxopiperidin-3-yl)amino)-2-(piperidin-4-yl)phenyl sulfurofluoridate] | + (<5% = +) | + (<5% = +) |
| O=C1CCC(c2noc3c(S(=O)(=O)F)cccc23)C(=O)N1 (stereo not drawn) [Compound A-58, 3-(2,6-dioxopiperidin-3-yl)benzo[d]isoxazole-7-sulfonyl fluoride] | +++++ (≥40% and <60% = +++++) | +++++++ (≥80% = +++++++) |
| O=C1CCC(c2ccc3ccc(S(=O)(=O)F)cc3c2)C(=O)N1 (stereo not drawn) [Compound A-60, 7-(2,6-dioxopiperidin-3-yl)naphthalene-2-sulfonyl fluoride] | ++++ (≥20% and <40%= ++++) | +++++++ (≥80% = +++++++) |
| CN(c1ccc(C2CCNCC2)c(OS(=O)(=O)F)c1)C1CCC(=O)NC1=O (stereo not drawn) [Compound A-61, 5-((2,6-dioxopiperidin-3-yl)(methyl)amino)-2-(piperidin-4-yl)phenyl sulfurofluoridate] | + (<5% = +) | ++ (≥5% and <10% = ++) |
| O=C1CCC(c2noc3c(OS(=O)(=O)F)cccc23)C(=O)N1 (stereo not drawn) [Compound A-62, 3-(2,6-dioxopiperidin-3-yl)benzo[d]isoxazol-7-yl sulfurofluoridate] | +++++++ (≥80% = +++++++) | +++++++ (≥80% = +++++++) |
| CC(C)N=S(=O)(F)c1ccc2c(c1)C(=O)N(C1CCC(=O)NC1=O)C2 (stereo not drawn) [Compound A-63, 3-[6-(S-fluoro-N-isopropyl-sulfonimidoyl)-1-oxo-isoindolin-2-yl]piperidine-2,6-dione] | + (<5% = +) | + (<5% = +) |
| NCCCCn1cc(COc2cc(S(=O)(=O)F)cc3c2CN(C2CCC(=O)NC2=O)C3=O)nn1 (stereo not drawn) [Compound A-64, 7-((1-(4-aminobutyl)-1H-1,2,3-triazol-4-yl)methoxy)-2-(2,6-dioxopiperidin-3-yl)-3-oxoisoindoline-5-sulfonyl fluoride] | + (<5% = +) | + (<5% = +) |
| NCCCCNC(=O)COc1cc(S(=O)(=O)F)cc2c1CN(C1CCC(=O)NC1=O)C2=O (stereo not drawn) [Compound A-65, 7-(2-((4-aminobutyl)amino)-2-oxoethoxy)-2-(2,6-dioxopiperidin-3-yl)-3-oxoisoindoline-5-sulfonyl fluoride] | + (<5% = +) | + (<5% = +) |
| O=C(O)COc1cc(S(=O)(=O)F)cc2c1CN(C1CCC(=O)NC1=O)C2=O (stereo not drawn) [Compound A-66, 2-((2-(2,6-dioxopiperidin-3-yl)-6-(fluorosulfonyl)-1-oxoisoindolin-4-yl)oxy)acetic acid] | + (<5% = +) | ++ (≥5% and <10% = ++) |
